# Results from the supplement of paper PMC3334620.
# In all, about 33,000 sequences were measured (“E-score (-0.5 to 0.5)”: median about -0.054, highest 2% from about 0.39 on). The list shows a part of the results.
# Biological target: Ylr278c (UniProt Q05854)
# Experiment: PBM E-score (8-mer binding enrichment) (E-score (-0.5 to 0.5)); higher = stronger / more preferred TF binding; most listed sequences are background and not binding sites
# Conditions: protein concentration: 200 nM; construct: GST-DNA-binding domain
# Summary of the method: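 For each ungapped eight-base word taken together with its reverse complement, the Universal PBM Analysis Suite assigned an E-score. Binding data came from GST-tagged yeast transcription factors, applied at about 100-200 nM, on universal all-10-mer Agilent arrays made double-stranded by primer extension. Fluorescent anti-GST marked bound protein, and scans were normalised with masliner.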
row,Sequence,PBM E-score
1,AGGACGTC,0.0253
2,ACAATGCC,0.181
3,ATAAAGGG,-0.103
4,GCCTTGCA,-0.269
5,CCTCTAAA,-0.319
6,AGCATCTC,-0.0457
7,GCACAAAA,0.152
8,CACCATCG,-0.15
9,ACCCTCTC,-0.08
10,CTCGCAAA,-0.258
11,GTCCCTAA,-0.0663
12,GACTGTAC,-0.155
13,CCTGGGAA,-0.134
14,CCGATTCG,0.267
15,ACGGTCAA,0.0459
16,AACGATAA,-0.0408
17,CATTACGA,-0.359
18,ATAACCCG,0.209
19,CCTGATCA,-0.168
20,CGTCATCC,-0.0289
21,AAAGGATC,-0.141
22,AGCCCGCT,-0.0693
23,CGACCATA,-0.0958
24,ATACGTCG,0.0915
25,TACAAATA,-0.0585

row,Sequence,PBM E-score
1,AAAGACAT,-0.178
2,CGGACCAC,0.293
3,CATTTGTA,-0.118
4,AAAGTTAC,-0.143
5,AGGGGCAT,-0.0977
6,GGTATTAA,0.0784
7,AGACTGAG,-0.244
8,CGCCTGCA,-0.194
9,ACGGACTG,0.0807
10,CGAACTAA,-0.0681
11,AAAAACCA,0.0223
12,GGAAATCC,0.346
13,GACGACGA,-0.0714
14,GCGATAAC,0.215
15,CATGTGAG,-0.29
16,CCGTATGC,0.261
17,GCGCGACC,0.0712
18,GTCCATGA,-0.179
19,CAGAAGGA,-0.338
20,AACCTAAG,-0.182
21,CAGTTAAA,-0.113
22,AGCCCTCG,-0.143
23,TTCTTAAA,-0.17
24,AACAGATG,-0.158
25,CCCGCAAA,0.189

row,Sequence,PBM E-score
1,AAACAAAA,-0.0847
2,TACCTAGA,-0.233
3,AACTAGGG,-0.195
4,ACAAAAAA,-0.0599
5,CACTGTCA,-0.307
6,CTCGCCTA,-0.0539
7,CAGGAAAA,0.00343
8,CGCGAGAA,0.178
9,GAGCACTA,-0.178
10,ATCGCAAA,-0.105
11,AAGATGGA,-0.0501
12,AGCGTTGG,-0.209
13,GCTGCCCA,-0.193
14,GCTAATCA,-0.116
15,TATTGCCA,-0.0931
16,GCGCTGGA,0.11
17,CGAAGTCA,-0.0453
18,ATTCGCTC,0.0759
19,ACAGCTCC,0.13
20,GATGTTCC,0.179
21,TACAATCA,-0.16
22,AAATGTAG,-0.0275
23,ATTCGTAC,-0.102
24,AAGAGATA,-0.194
25,GATCGACA,-0.055

row,Sequence,PBM E-score
1,CCATTTGA,-0.00555
2,CGTGCTAA,-0.0776
3,AATCTTGT,0.0194
4,GTCGCAGA,-0.00463
5,ACCCTCCC,0.251
6,TACTCCAA,-0.243
7,CTTCAGTC,-0.134
8,TCTTCGCA,0.0722
9,AACGAAGG,-0.238
10,ACGTCAAC,-0.0531
11,GATCAGGC,-0.0423
12,ATTGAGTG,-0.0839
13,AGTCTAGA,-0.209
14,TCCAAGGA,0.0797
15,CCTTCAGC,-0.208
16,CCGCGGAG,0.449
17,CAGACATA,0.03
18,ACTAGCGA,-0.0813
19,AAACGGCA,0.0355
20,ATACATCA,-0.138
21,GTCTTCAA,-0.344
22,GGGCTCAA,-0.00819
23,CAGAGGTA,-0.232
24,GGATCCAC,-0.0712
25,GATGCCGC,0.181

row,Sequence,PBM E-score
1,CGAGCTCG,0.105
2,GGCGTAGA,-0.0366
3,CTAACACC,-0.026
4,AATTCGCA,0.214
5,GATCACGA,-0.209
6,CGCGTAGC,0.0684
7,CCCTACGG,0.0961
8,GACACTAC,0.0999
9,CTAGAATA,-0.0546
10,ATACTCGC,0.166
11,GCAATGGA,-0.118
12,ACTACCGG,0.304
13,AAACAAGT,-0.0893
14,CTGGGGCC,-0.0146
15,AGCCCCGC,0.18
16,AAGTGGCA,-0.22
17,GATGCCCC,-0.017
18,CTGCCTCA,-0.234
19,GATTAGCA,-0.114
20,TCGCAACA,-0.0735
21,ATTGACCA,-0.196
22,CGCTAATA,0.101
23,GTTAAACA,0.0395
24,GCACCCCC,-0.0808
25,ACCGTGAT,-0.0148

row,Sequence,PBM E-score
1,ACCTGACG,-0.262
2,ACCGGGTG,0.283
3,GGGGAACC,-0.0533
4,TGGTCACA,-0.0628
5,CTGACCAA,-0.185
6,AGCAACCT,-0.0958
7,AGCAGTAC,-0.15
8,ACCACGTC,-0.14
9,CTCTCGTA,-0.18
10,ACCACATC,0.0312
11,ATGTTGAG,-0.0471
12,AACTTTGG,-0.168
13,GCAATTCC,0.268
14,AACAGGTG,-0.24
15,CCAAATCG,-0.0345
16,ACAATACC,0.0678
17,GGGGTACA,0.108
18,CCTCAGAC,0.139
19,ATATCTGC,-0.0708
20,ACGATAAA,-0.0639
21,ACGTCCCT,-0.288
22,AAAGTAGG,-0.0614
23,AGAGGCTG,-0.326
24,GTTGACTA,-0.205
25,ACATGTAA,-0.12

row,Sequence,PBM E-score
1,GCCTTGGA,-0.162
2,AACTCTCT,-0.0184
3,ACTGCCCG,0.0339
4,CTCAAACA,-0.0563
5,TAGGCCCA,-0.313
6,ACGACAAC,0.00648
7,ATGTGAAC,-0.144
8,AGCGCTTA,-0.0851
9,TAAATTAA,0.0642
10,ATTGCACC,-0.0277
11,CCTTGATA,-0.159
12,ATATTAAT,0.106
13,ATCTAGCA,-0.229
14,GGCGCTTA,0.0332
15,CACCATTA,0.0639
16,ACTGCTTA,-0.179
17,CATCTCGG,0.359
18,ATATGACG,0.0851
19,ACCACAGA,-0.19
20,AAATCGTC,0.0262
21,AGAGCCAG,-0.312
22,AACCACCA,-0.157
